Drawing on PMC10133230, this text covers binding for four substances.

By UniProt entry, the sequences of proteins in these tests, tags left out. Where a name states a change or a piece, a line headed by the entry shows the natural chain unless it says otherwise.
UniProt Q39057: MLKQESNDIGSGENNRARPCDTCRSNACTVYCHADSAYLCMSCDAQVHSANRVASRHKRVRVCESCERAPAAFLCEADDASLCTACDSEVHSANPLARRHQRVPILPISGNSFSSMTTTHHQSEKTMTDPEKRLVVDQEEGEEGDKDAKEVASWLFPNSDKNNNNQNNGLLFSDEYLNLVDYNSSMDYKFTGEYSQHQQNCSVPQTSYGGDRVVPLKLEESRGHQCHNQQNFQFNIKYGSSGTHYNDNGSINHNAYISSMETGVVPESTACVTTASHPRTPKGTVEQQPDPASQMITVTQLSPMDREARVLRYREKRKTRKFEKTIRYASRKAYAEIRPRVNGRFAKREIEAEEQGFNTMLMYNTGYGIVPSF

Substitutions are numbered along the chain they refer to. Results are given in words; binding and its absence hold for the method and conditions named. For some assays here: Binding seen in cells or lysates may run through a third protein. Some results given as binding are weak or reduced against the parent protein; the word gives no strength. For some assays here: Tags and fused reporters may be left off the sequences shown.

The target in test [1] is T1, HOOKLESS1 (HLS1), yeast two-hybrid bait (Arabidopsis thaliana) (UniProt Q42381).
T1 sequence: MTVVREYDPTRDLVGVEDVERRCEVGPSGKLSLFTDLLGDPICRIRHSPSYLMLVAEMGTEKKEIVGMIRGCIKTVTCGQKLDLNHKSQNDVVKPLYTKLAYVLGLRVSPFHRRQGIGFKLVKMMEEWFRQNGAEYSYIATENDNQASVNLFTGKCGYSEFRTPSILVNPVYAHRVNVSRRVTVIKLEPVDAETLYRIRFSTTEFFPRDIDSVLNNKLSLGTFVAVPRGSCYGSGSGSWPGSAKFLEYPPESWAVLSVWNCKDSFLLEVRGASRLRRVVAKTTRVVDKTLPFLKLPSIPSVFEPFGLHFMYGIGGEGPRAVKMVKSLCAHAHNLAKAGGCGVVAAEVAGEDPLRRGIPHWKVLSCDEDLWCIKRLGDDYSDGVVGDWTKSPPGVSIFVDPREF
Put plainly: two-hybrid; Matchmaker Gold system, yeast strain AH109, HLS1 as bait and CO forms as prey; growth on SD (-Leu/-His/-Ade/-Trp) at 28 °C for 4-7 days.

Test [2] has as its target T2, HLS1 fused to cYFP (BiFC assay) (Arabidopsis thaliana) (UniProt Q42381).
T2 sequence: T1 sequence
Put plainly: split reporter; BiFC: CO dNt with nYFP and HLS1 or HLS1^E346K with cYFP, co-expressed in N. benthamiana leaves for 2 days, YFP by confocal microscopy.

Test [3] has as its target T3, HLS1^E346K, the hls1-1 mutated form of HLS1, fused to cYFP (BiFC assay) (Arabidopsis thaliana) (UniProt Q42381).
T3 sequence: T1 sequence with E346K
Described as above.

The target in test [4] is T4, HLS1 fused to cLUC (LCI assay) (Arabidopsis thaliana) (UniProt Q42381).
T4 sequence: T1 sequence
Put plainly: split reporter; firefly luciferase complementation imaging (LCI): HLS1 in pCAMBIA1300-cLUC and CO in pCAMBIA1300-nLUC, agroinfiltrated N. benthamiana leaves, LUC activity by CCD camera.

Turning to “CO dNt (carboxyl end of CO, amino acids 133-374), yeast two-hybrid prey (from UniProt Q39057 133-373) (domain or fragment)”, in test [1], the binding result is given as “binds”.

Regarding “CO dNt fused to nYFP (BiFC assay) (from UniProt Q39057 133-373) (domain or fragment)”, the results for the binding entry in test [2] and in test [3] were “binds” and “no binding”, respectively.

In the case of “CO fused to nLUC (LCI assay) (from UniProt Q39057 1-373)”, in test [4], the binding result is on record as “binds”.

For “CONSTANS (CO), yeast two-hybrid prey (from UniProt Q39057 1-373)”, the binding result in test [1] is “binds”.
